Laboratory results published in the supplement of paper PMC12217912.
The other results are listed elsewhere or left out. The full chains were built here from the parent and the listed change. Values near 0.05 are background.

B1: TEV protease; numbered along this chain (parent)
chain: MGESLFKGPRDYNPISSSICHLTNESDGHTTSLYGIGFGPFIITNKHLFRRNNGTLVVQSLHGVFKVKDTTTLQQHLVDGRDMIIIRMPKDFPPFPQKLKFREPQREERICLVTTNFQTKSMSSMVSDTSCTFPSGDGIFWKHWIQTKDGQCGSPLVSTRDGFIVGIHSASNFTNTNNYFTSVPKNFMELLTNQEAQQWVSGWRLNADSVLWGGHKVFMVKPEEPFQPVKEATQL

Variants of: B1
Assay: raw area under fraction-flipped curve 0-4 h after induction (AUC4h, not background-subtracted), DNA-recorder readout of cleavage of the substrate (dimensionless); higher = more cleavage of the substrate by the protease variant
Conditions: temperature: 34 °C; time window: 0-4 h after rhamnose induction
Description: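 In vivo DNA recorder in E. coli TOP10(DE3) ΔrhaA at 34 °C. Each TEVp single-site mutant (parent TEVp 0) is paired with a single-site variant of the 7-mer TEVs (canonical ENLYFQ|S). The substrate sits between flexible linkers in a Bxb1-sfGFP-TEVs-SsrA fusion, so cleavage stabilises Bxb1 and speeds flipping of a recombination array, read by NGS. The value is the raw area under the fraction-flipped curve over 0-4 h after rhamnose induction (AUC4h), with ≥20 reads per time point. It is not background-subtracted; inactive controls average about 0.047.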
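Further: Bxb1 expression induced with 0.2% (w/v) L-rhamnose at OD600 near 0.5, cultures sampled hourly, flipped fraction per protease–substrate barcode pair counted by paired-end Illumina sequencing.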

| Variant | area with substrate ENLYFCS | area with substrate ENLYFDS | area with substrate ENLYFES | area with substrate ENLYFFS | area with substrate ENLYFHS | area with substrate ENLYFIS | area with substrate ENLYFKS | area with substrate ENLYFLS | area with substrate ENLYFMS | area with substrate ENLYFNS | area with substrate ENLYFPS | area with substrate ENLYFRS | area with substrate ENLYFSS | area with substrate ENLYFTS | area with substrate ENLYFVS | area with substrate ENLYFWS | area with substrate ENLYFYS | area with substrate ENLYFGS |
| --- | --- | --- | --- | --- | --- | --- | --- | --- | --- | --- | --- | --- | --- | --- | --- | --- | --- | --- |
| F41M | 0.0628 | 0.0563 | 0.0651 | 0.0723 | 0.0516 | 0.0517 | 0.0508 | 0.0522 | 0.0525 | 0.0627 | 0.066 | 0.0645 | 0.0553 | 0.0597 | 0.0729 | 0.0458 | 0.0596 | – |
| P89T | 0.0475 | – | – | 0.072 | – | 0.0139 | – | 0.0659 | 0.0411 | – | 0.0622 | 0.0549 | 0.0474 | 0.0509 | – | – | 0.058 | – |
| F6E | 0.026 | 0.0644 | 0.0495 | – | – | – | – | – | – | – | 0.0874 | 0.0522 | 0.0879 | – | 0.0557 | 0.0565 | – | – |
| H62Q | 0.062 | – | 0.0446 | 0.0716 | – | 0.0554 | – | – | 0.0671 | – | – | – | 0.0472 | – | – | 0.0763 | 0.0608 | – |
| P93E | 0.0528 | 0.109 | 0.0764 | 0.0529 | – | – | – | – | – | 0.0587 | 0.0574 | 0.0576 | – | – | – | – | – | 0.0402 |
| I86P | 0.0355 | – | 0.0401 | 0.0457 | 0.0332 | 0.0492 | 0.0434 | – | 0.0191 | – | – | – | – | – | – | – | – | – |
| W199A | 0.0904 | – | 0.0767 | 0.0707 | – | – | – | – | 0.0611 | 0.0706 | 0.0632 | – | – | 0.067 | – | – | – | – |
| I84Y | 0.0628 | – | 0.0672 | 0.0688 | 0.0673 | 0.0562 | – | 0.0481 | – | – | 0.0537 | 0.0709 | 0.0557 | 0.0479 | 0.0397 | 0.0313 | – | – |
| T55R | 0.0603 | – | – | – | 0.0838 | 0.035 | 0.0543 | – | 0.0738 | 0.07 | 0.064 | – | 0.0561 | 0.0771 | – | – | – | – |
| Q74T | 0.0557 | – | 0.0811 | 0.0623 | – | 0.0496 | – | – | – | 0.051 | – | – | 0.0451 | 0.0695 | 0.0497 | – | 0.058 | – |
| R50A | 0.0543 | 0.0741 | 0.0715 | 0.0674 | 0.0626 | 0.0625 | 0.076 | 0.0599 | 0.0536 | 0.0664 | 0.0643 | 0.0616 | 0.0647 | 0.0675 | 0.0591 | 0.0559 | – | 0.0692 |
| S209T | 0.0657 | – | 0.0802 | – | – | 0.0541 | – | – | – | – | 0.0607 | – | – | 0.0633 | – | 0.0447 | 0.057 | – |
| I145A | 0.0584 | – | 0.0625 | 0.0828 | – | 0.0499 | 0.0674 | 0.0487 | 0.0887 | – | 0.0773 | 0.0616 | – | 0.0581 | – | – | – | – |
| T115H | 0.0579 | 0.0692 | 0.0718 | 0.0604 | 0.0174 | 0.0592 | – | 0.0467 | – | 0.0848 | 0.0776 | 0.0575 | 0.0646 | 0.0395 | – | 0.0528 | – | 0.0682 |
| C111Q | 0.0623 | – | 0.0712 | 0.0727 | – | 0.0476 | 0.0465 | 0.0523 | – | 0.0631 | 0.0443 | 0.0605 | 0.0624 | 0.0708 | – | 0.0594 | – | – |
| G153A | 0.057 | – | – | 0.065 | – | – | 0.066 | – | 0.0546 | – | – | – | – | – | – | 0.0474 | – | – |
| R87L | 0.061 | 0.0549 | 0.0599 | 0.0669 | – | 0.0582 | 0.0457 | – | 0.0766 | 0.062 | 0.046 | – | 0.0589 | 0.0575 | – | 0.0528 | – | – |

| Variant | area with substrate ENLYFCS | area with substrate ENLYFDS | area with substrate ENLYFES | area with substrate ENLYFFS | area with substrate ENLYFHS | area with substrate ENLYFIS | area with substrate ENLYFKS | area with substrate ENLYFLS | area with substrate ENLYFMS | area with substrate ENLYFNS | area with substrate ENLYFPS | area with substrate ENLYFRS | area with substrate ENLYFSS | area with substrate ENLYFTS | area with substrate ENLYFVS | area with substrate ENLYFWS | area with substrate ENLYFYS | area with substrate ENLYFGS |
| --- | --- | --- | --- | --- | --- | --- | --- | --- | --- | --- | --- | --- | --- | --- | --- | --- | --- | --- |
| G214L | 0.0689 | 0.0461 | – | 0.0538 | – | 0.0393 | 0.0502 | – | 0.058 | – | 0.0519 | 0.0525 | – | 0.0647 | – | 0.0461 | – | – |
| L73M | 0.0409 | – | 0.0504 | – | 0.0714 | 0.0467 | 0.067 | – | 0.0615 | 0.0664 | 0.0604 | 0.0395 | 0.0591 | – | 0.0917 | 0.0467 | – | – |
| N206M | 0.0558 | – | – | – | – | 0.056 | – | 0.0517 | 0.0664 | – | – | – | – | 0.0554 | – | 0.0591 | 0.0522 | – |
| D137M | 0.073 | 0.0284 | 0.0693 | – | 0.0423 | 0.0501 | 0.0586 | 0.0519 | 0.0752 | 0.0662 | 0.0649 | – | – | 0.0517 | – | 0.0671 | – | 0.045 |
| W212Y | 0.0585 | – | – | 0.0887 | 0.0449 | 0.0405 | 0.0737 | 0.0655 | 0.0946 | – | 0.0578 | 0.0366 | 0.0712 | – | 0.0491 | – | – | 0.0538 |
| N206W | 0.0532 | 0.0321 | 0.0589 | 0.0598 | 0.044 | 0.054 | – | – | 0.0603 | 0.0619 | 0.0631 | 0.0639 | 0.065 | 0.0557 | 0.0626 | – | 0.0576 | – |
| V165Q | 0.0469 | – | 0.0494 | – | 0.0368 | 0.0624 | 0.0527 | 0.0448 | 0.0592 | – | 0.0585 | 0.0518 | 0.0734 | 0.0575 | – | – | – | – |
| K230R | 0.0652 | – | 0.0798 | – | 0.0684 | – | 0.075 | – | 0.0638 | – | – | – | – | 0.0535 | – | 0.047 | – | – |
| Q59W | 0.0704 | – | 0.0645 | – | – | 0.0571 | 0.0602 | 0.0744 | 0.0576 | 0.0601 | 0.0718 | – | – | 0.0671 | – | 0.0694 | 0.0679 | 0.0878 |
| M188G | 0.0618 | – | – | – | 0.0905 | 0.0584 | 0.0618 | 0.0539 | – | – | 0.0614 | – | – | 0.0672 | – | 0.0715 | 0.0576 | – |
| W199K | 0.0594 | – | 0.0515 | – | 0.071 | 0.0496 | – | – | 0.0585 | 0.0607 | 0.0697 | – | – | 0.0559 | – | – | – | – |
| G35H | 0.0302 | – | 0.038 | 0.0518 | – | – | 0.0534 | 0.0294 | 0.0174 | 0.0508 | 0.0461 | 0.0341 | 0.0546 | 0.0494 | – | – | – | – |
| A232I | 0.0584 | – | 0.0556 | – | 0.0259 | – | 0.0663 | – | – | – | – | – | 0.0563 | 0.0627 | – | – | – | 0.0575 |
| K90T | 0.0735 | 0.0817 | 0.0665 | 0.0684 | 0.0474 | 0.056 | – | – | 0.0622 | – | 0.0735 | 0.0577 | – | 0.0576 | 0.0459 | 0.0568 | 0.0461 | – |
| F38S | 0.0618 | 0.0396 | 0.0608 | 0.0626 | 0.056 | 0.0466 | – | – | 0.0612 | – | 0.0573 | 0.0474 | 0.0547 | 0.043 | – | 0.0402 | 0.0563 | – |
| S18D | 0.0458 | 0.0509 | 0.0502 | – | – | 0.0479 | – | – | 0.0469 | – | – | – | 0.0323 | 0.0571 | 0.0526 | 0.05 | – | – |
